Assay results taken from the RNAGym collection of RNA variant scans (doi:10.1073/pnas.2313332121).
Variants at the background level are over-represented here.

B1: TPR 5TU (parent)
chain: GGAUCUUCUCGAUCUAACAAAAAAGACAAAUCUGCCACAAAGCUUGAGAGCAUCUUCGGAUGCAGAGGCGGCAGCCUUCGGUGGCGCGAUAGCGCCAACGUUCUCAACUAUGACACGCAAAACGCGUGCUCCGUUGAAUGGAGUUUAUCAUG

Variants of: B1
Assay: polymerase ribozyme fitness, log enrichment relative to wild type (log ratio); higher = more active; in vitro selection for triplet polymerase activity
In short: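 Both subunits of a heterodimeric triplet polymerase ribozyme were given their own mutant library, built by PCR and transcribed. Each library was annealed with a biotinylated primer, the partner subunit and triplets, incubated frozen at −7 °C, and its extended constructs gel-excised, captured on streptavidin beads and amplified by RT-PCR, all in one round done in triplicate. Fitness is the logarithm of genotype enrichment relative to wild-type enrichment, with replicates averaged by inverse-variance weighting. That logarithm is base 2, and Illumina-sequenced genotypes needed ≥10 input reads and ≥1 read per output.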

Point of comparison: GGAUCUUCUCGAUCUAACAAAAAAGACAAAUCUGCCACAAAGCUUGAGAGCAUCUUCGGAUGCAGAGGCGGCAGCUUUCGGUGGCGCGGUAGCGCCAACGUUCUCAACUAUGACACGCAAAACGCGUGCUCCGUUGAAUGGAGUUUAUCAUG, “polymerase ribozyme fitness (log ratio)” value -1.03. Against it:
- GGAUCUUCUCGAUCUAACAAAAAAGACAAAUCUGCCACAAAGCUUGAGAGCAUCUUCGGAUGCAGAGGCGGCAGCGUUCGGUGGCGCGAUAGCGCCAACGUUCUCAACUAUGACACGCAAAACUCGUGCUCCGUUGAAUGCAGUUUAUCAUG — lower, ≤ -4.2
- GGAUCUUCUCGAUCUAACAAAAAAGACAAAUCUGCCACAAAGCUUGAGAGCAUCUUCGGAUGCAGAGGCGGCAGCUUUCAGUGGCGCGAUAGUGCCAACGUUCUCAACUAUGACACGCAAAACGCGUGCUCCGUUGAAUGGAGUUUAUCAGG — lower, ≤ -4.2
- GGAUCUUCUCGAUCUAACAAAAAAGACAAAUCUGCCACAAAGCUUGAGAGCAUCUUCGGAUGCAGAGGCGGCAGCGUUCGGUGGCGCGAUAGCGCUAACGUUCACUACUAUGACACGCAAAACGUGUGCUCCGUUGAAUGGAGUUUAUCAUG — lower, ≤ -4.2
- GGAUCUUCUCGAUCUAACAAAAAAGACAAAUCUGCCACAAAGCUUGAGAGCAUCUUCGGAUGCAGAGGCGGCAGCCAUCGGUUGCGCGAUAGCGCCAACGUUCUCAACUAUGACACGCAAAACGCGUGCUCCGAUGAAUGGAGUUUAUCAUG — lower, ≤ -4.2
- GGAUCUUCUCGAUCUAACAAAAAAGACAAAUCUGCCACAAAGCUUGAGAGCAUCUUCGGAUGCAGAGGCGGCAGCGUUCGGUGACGCGAUAGCGCCAACGUUCUCAACUAUGACACGCAAAGCGCGUGCUCCGUUGAAUGGAGUUUAUCAUG — lower, ≤ -4.2
- GGAUCUUCUCGAUCUAACAAAAAAGACAAAUCUGCCACAAAGCUUGAGAGCAUCUUCGGAUGCAGAGGCGGCAGCUUUCGGUGGCGCGAUUACGCCAACGUUCUCAACUAUGACACGCAAAACGCGUGCUCCGUUGAAUGGAGUUUAUCAUG — lower, -4.02
- GGAUCUUCUCGAUCUAACAAAAAAGACAAAUCUGCCACAAAGCUUGAGAGCAUCUUCGGAUGCAGAGGCGGCAGCGUUCGCUGGCGCGAUGGCGCAAACGUUCUCAACUAUGACAGUCAAAACGCGUGCGUCGUUGAAUGGAGUUUAGCAUG — lower, ≤ -4.2
- GGAUCUUCUCGAUCUAACAAAAAAGACAAAUCUGCCACAAAGCUUGAGAGCAUCUUCGGAUGCAGAGGCGGCAGCUUUCGGUGGAGCGAUAGCGCCAACGUUCUCAACUAUGACACGCAAAACGCGUGCUCCGUUGAAUGCAGUUUACCAUG — lower, -3.74
- GGAUCUUCUCGAUCUAACAAAAAAGACAAAUCUGCCACAAAGCUUGAGAGCAUCUUCGGAUGCAGAGGCGGCAGCCAUCGGUGGCGCUAUAGCGCCAACGUUCUCAACUAUGACACGCAUAACGCGUGCUCCGUUGAAUCGAGUUUAUCAUG — lower, ≤ -4.2
- GGAUCUUCUCGAUCUAACAAAAAAGACAAAUCUGCCACAAAGCUUGAGAGCAUCUUCGGAUGCAGAGGCGGCAGCCAUCGGUGGGGCGAUAGUGCCAACGUUCUCAACUAUGACACGCAAAACGCGUGAUCCGUUGAAUGGAGUUUAUCAUG — lower, ≤ -4.2
- GGAUCUUCUCGAUCUAACAAAAAAGACAAAUCUGCCACAAAGCUUGAGAGCAUCUUCGGAUGCAGAGGCGGCAGCUUUCGGUGUCGCGAUAGCGCCAACGUUCUCAACUAUGACACGCAAAACGCGUGCUCCGUUGAAUGGAAUUUAUCAUG — lower, -2.57
- GGAUCUUCUCGAUCUAACAAAAAAGACAAAUCUGCCACAAAGCUUGAGAGCAUCUUCGGAUGCAGAGGCGGCAGCGUUCGGUGGCGCAAUAGCGCCAACGUUCUCAACUAUGACACGCAAAACGCGUGCUCCGUUAAAGGGAGUUUAUCAUG — lower, ≤ -4.2
- GGAUCUUCUCGAUCUAACAAAAAAGACAAAUCUGCCACAAAGCUUGAGAGCAUCUUCGGAUGCAGAGGCGGCAGCCAUCGGUGGCGCGAUAGCGCCAACGUUCUCAACUAUGACACGCAAAACGCGUGCUCCGUUGACUGGAGGUUAUCAUG — lower, ≤ -4.2
- GGAUCUUCUCGAUCUAACAAAAAAGACAAAUCUGCCACAAAGCUUGAGAGCAUCUUCGGAUGCAGAGGCGGCAGCGUUCGGUGGCGCGAUAGCGCUACCGCUCUCAACUAUGACACGCAAAACGCGUGCUCCGUUGAAUGGAGUUUAUCAUG — lower, ≤ -4.2
- GGAUCUUCUCGAUCUAACAAAAAAGACAAAUCUGCCACAAAGCUUGAGAGCAUCUUCGGAUGCAGAGGCGGCAGCCAUCGGUGGCGCGAUAGCGCCAACGUUCUCAACUAUGACACGCAAAACGCGUGCUCCGUUGAAUGGAGUUUAUCAUG — lower, ≤ -4.2
- GGAUCUUCUCGAUCUAACAAAAAAGACAAAUCUGCCACAAAGCUUGAGAGCAUCUUCGGAUGCAGAGGCGGCAGCCAUCGGUGGCGCGAUAGCAGCAACGUUCUCAACUAUGACACGCAAAACGCGUGCUCCGUUGAAUGUAGUUUAUCAUU — lower, ≤ -4.2
- GGAUCUUCUCGAUCUAACAAAAAAGACAAAUCUGCCACAAAGCUUGAGAGCAUCUUCGGAUGCAGAGGCGGCAGCUUUCGGUGCCGCGAUAGCGCCAACGUUCUCAACUAUGACACGCAAAACGCGUGCUCCGUUGAAUGGAGUUUAUCAUG — lower, -1.35
- GGAUCUUCUCGAUCUAACAAAAAAGACAAAUCUGCCACAAAGCUUGAGAGCAUCUUCGGAUGCAGAGGCGGCAGCUUUCGGUGGGGGGAUAGCGCCAACGUUCUCAAUUAUGGCACGCAAAACGCCUGCUCCGUUGCAUGGAGUUUAUCAUG — lower, ≤ -4.2
- GGAUCUUCUCGAUCUAACAAAAAAGACAAAUCUGCCACAAAGCUUGAGAGCAUCUUCGGAUGCAGAGGCGGCAGCUUUCGGUGGCGCGAUAGGGCCAACGUUCUCAACUAUGACACGCAAAACGCGUGCUCUGUUGAAUGGAGUUUAUCAUG — lower, -3.96
- GGAUCUUCUCGAUCUAACAAAAAAGACAAAUCUGCCACAAAGCUUGAGAGCAUCUUCGGAUGCAGAGGCGGCAGCCAUCGGUGGCGCGAUAGAGCCAACGUUCUCAACUAUGACACGCAAAACGCGUGCUCCGUUGAAUGGAGUUUAUCAUG — lower, ≤ -4.2
- GGAUCUUCUCGAUCUAACAAAAAAGACAAAUCUGCCACAAAGCUUGAGAGCAUCUUCGGAUGCAGAGGCGGCAGCCAUCGGUGGCGCGAUAGCACCAACGUUCUCAGCUAUGACACGCAAUACGCGUGCUCCGUUGAAUGGACUUUAUCAUG — lower, ≤ -4.2
- GGAUCUUCUCGAUCUAACAAAAAAGACAAAUCUGCCACAAAGCUUGAGAGCAUCUUCGGAUGCAGAGGCGGCAGCUUUCGGUGGCGCGACAGCGCCAACGUUCUCAACUACGACACGCAAAACGCGUGCUCCGUUGAAUGGAGUUUAUCAUG — lower, ≤ -4.2
- GGAUCUUCUCGAUCUAACAAAAAAGACAAAUCUGCCACAAAGCUUGAGAGCAUCUUCGGAUGCAGAGGCGGCAGCGUUCGGUGGCGCGAUAGCGCCAACGUUCUCAACUAUGACACGCAAAACGCGUGCUCCGUUGAAUGGAGUUCAUCAGG — lower, ≤ -4.2
- GGAUCUUCUCGAUCUAACAAAAAAGACAAAUCUGCCACAAAGCUUGAGAGCAUCUUCGGAUGCAGAGGCGGCAGCCAUCGGUGGCGCAAUAGCGCCAACGUUCUCAACUAUGACACGCAAAACGCGUGCUCCGUUGAAUGGAGUUUAUCAUG — lower, ≤ -4.2
- GGAUCUUCUCGAUCUAACAAAAAAGACAAAUCUGCCACAAAGCUUGAGAGCAUCUUCGGAUGCAGAGGCGGCAGCUUUCGGUGGCGUGAUAGCGCCAACGUUCUCAACUAUGACACGCAAAACGCGUGCUCCGUUGAAUUGAGUUCAUCAUG — lower, -3.72
- GGAUCUUCUCGAUCUAACAAAAAAGACAAAUCUGCCACAAAGCUUGAGAGCAUCUUCGGAUGCAGAGGCGGCAGCGUUCGGUGGCGCCAUAGCGCCAACGUUCUCAACUAUGACACGCAAGACGCGUGCUCCGUUGAAUGGAGUUUAUCAUG — lower, ≤ -4.2
- GGAUCUUCUCGAUCUAACAAAAAAGACAAAUCUGCCACAAAGCUUGAGAGCAUCUUCGGAUGCAGAGGCGGCAGCCAUCGGUGGCGCGAUAGCGCCAUCGUUCUCAACUAUGACAUGCAAAACGCGUGCUCCGUUGAAUGGAGUUUUUCAUG — lower, ≤ -4.2
- GGAUCUUCUCGAUCUAACAAAAAAGACAAAUCUGCCACAAAGCUUGAGAGCAUCUUCGGAUGCAGAGGCGGCAGCGUUCGGUGGCGCGAUAGCGCCAACGUUCUCAACUAUGACACGCAAAACGCGUGCGCCGUUGAAUGCAGUUUAUCAUG — lower, ≤ -4.2
- GGAUCUUCUCGAUCUAACAAAAAAGACAAAUCUGCCACAAAGCUUGAGAGCAUCUUCGGAUGCAGAGGCGGCAGCUUUCGGUGACGCGAUAGCGCCAACGUUCGCAACUAUGACACGCAAAACGCGUGCUCCGUUGAAUGGAGUUUAUCACG — lower, ≤ -4.2
- GGAUCUUCUCGAUCUAACAAAAAAGACAAAUCUGCCACAAAGCUUGAGAGCAUCUUCGGAUGCAGAGGCGGCAGCGUUCGGUGGCGCGAUAGCGCCAACGUUCUCAACUAUGACACGCAAAACGCGUGCUCCGUUGAAUGGAGUUAAUCAUG — lower, ≤ -4.2
- GGAUCUUCUCGAUCUAACAAAAAAGACAAAUCUGCCACAAAGCUUGAGAGCAUCUUCGGAUGCAGAGGCGGCAGCUUUCGGUAGCGCGUUAGCGCCUACGUGCUCAACUAUGACACGCAAAACGCGUGCUCCGUUGAAUGGAGUUUAUCAUG — lower, ≤ -4.2
- GGAUCUUCUCGAUCUAACAAAAAAGACAAAUCUGCCACAAAGCUUGAGAGCAUCUUCGGAUGCAGAGGCGGCAGCGUUCGGUGGCGCGAUAGCGCCAACGUUCUCAACUAUGACACGCAAAACGCGUGCUCCGUUGAAUGGAGUUUAACAUG — lower, ≤ -4.2
- GGAUCUUCUCGAUCUAACAAAAAAGACAAAUCUGCCACAAAGCUUGAGAGCAUCUUCGGAUGCAGAGGCGGCAGCGUUCGGUGGCCCGAUAGCGCCAACGUUCUCAACUAUGACACGCAAAUCGCGUGCUCCCUUGAAUGGGGUUUAGCAUG — lower, ≤ -4.2
- GGAUCUUCUCGAUCUAACAAAAAAGACAAAUCUGCCACAAAGCUUGAGAGCAUCUUCGGAUGCAGAGGCGGCAGCUUUCGGUGGCGCGAUAGCACCAAGGUUCUCAACUAUGACACGCAAAACGCCUGCUCCGUUGAAUGGAGUUUAUCAUG — lower, ≤ -4.2
- GGAUCUUCUCGAUCUAACAAAAAAGACAAAUCUGCCACAAAGCUUGAGAGCAUCUUCGGAUGCAGAGGCGGCAGCUUUCGGAGGCGCCAUAGCGCCAACGGUCUCAACUAUUACACGCAAAACGCGUGCUCCGUUGAAUGGAGUUUGUCAUG — lower, ≤ -4.2
- GGAUCUUCUCGAUCUAACAAAAAAGACAAAUCUGCCACAAAGCUUGAGAGCAUCUUCGGAUGCAGAGGCGGCAGCGUUCGGUGGCGCGAUAGCGCCAACGUUCUCAACUAUGACACGCAAAACGCGUGCUCCGUUGAAUGGAGUUUAUAAUU — lower, ≤ -4.2
- GGAUCUUCUCGAUCUAACAAAAAAGACAAAUCUGCCACAAAGCUUGAGAGCAUCUUCGGAUGCAGAGGCGGCAGCCAUCGGUGGCGCGAUAGCGCCAACGUUCUCAUCUAUGACACGCAAAACGCGUGCUCCGUUGAAUGGAGUUCAUCAUG — lower, ≤ -4.2
